Out of some 340,000 compounds screened, about 12,000 (3.5%) were called active. Inconclusive means that the source gave no clear call. Such entries were picked first, then a sample of the others. The call rests on the fitted dose curve; in most records, active means well fitted inhibition curve with a large enough effect; inconclusive means small, poorly fitted or top-dose-only effect, or another doubt; inactive means no such curve, though single readings can be large or run the other way. No potency is given beside an inconclusive call; the fits are too rough.
Assay: qHTS Assay for Inhibitors of Hepatitis C Virus (HCV)
Settings: Huh7.5.1 HCVcc-Cre (HCVcc is cell-culture hepatitis C virus) infection, luciferase reporter, 44 h; activity change, negative = inhibition: at 41.8 µM (top of the series) unless noted
Method in brief: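 Reporter virus HCVcc-Cre (~0.5 moi) infects cells exposed to compound; seeding density 1,000 cells/well with 4 h settling beforehand. Luminescence, 15 sec read, taken 44 h post-infection following a 15 min RT substrate incubation.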
On the % scale 0 is the no-effect control and ±100 the full control effect; potency means the concentration at half of the fitted maximal effect; tags describe the fitted curve by direction and shape.

SMILES | Potency | activity change, negative = inhibition
C=CCN(CC=C)C(=O)C1CCN(Cc2ccc(OCc3ccccc3)cc2)CC1 | inconclusive [inhibitor, partial curve] | –
CC(=O)[C@@]1(O)C(C)CC2C3C=C(C)C4=Cc5c(cnn5-c5ccccc5)C[C@]4(C)C3C(O)C[C@@]21C (stereo partly specified) | active: 7.08 µM | –
COc1ccc(/C=C2/SC(=O)NC2=O)cc1 | inactive | –
Cc1[nH]c2ccc(C(=O)OC(C)C(=O)NC3CCCCC3C)cc2c1C (stereo unspecified) | active: 22.4 µM | –
COc1ccc(C2Nc3ccccc3NC3=C2C(=O)CC(C)(C)C3)cc1 (stereo unspecified) | inactive | –
CCOc1ccc(NC2=CC(=O)C(=O)c3ccccc32)cc1 | inconclusive [inhibitor, single point] | –
CC(NC(=O)COC(=O)c1ccc(N(C)C)cc1)c1ccccc1 (stereo unspecified) | inconclusive [inhibitor, single point] | –
COc1ccc(N(CC(=O)N/N=C/c2ccco2)S(=O)(=O)c2ccccc2)cc1Cl | inactive | –
O=c1cc(-c2ccco2)oc2c1ccc1ccccc12 | inconclusive [inhibitor, partial curve] | –
O=C(CN1CCN(c2ccccc2)CC1)Nc1ccncc1 | inconclusive [inhibitor, single point] | –
CCn1c(SCC(=O)Nc2ccc(OC)c(S(=O)(=O)N3CCCCC3)c2)nnc1C1CC1 | inconclusive [inhibitor, full curve] | –
COc1ccc(-c2noc(CSc3ccccc3)n2)cc1OC | inconclusive [inhibitor, single point] | –
C=C[C@H]1CN2CC[C@H]1C[C@@H]2[C@@H](O)c1ccnc2ccccc12 | inactive | –
N#Cc1c(C(F)(F)F)cc(-c2ccccc2)nc1SCCN1CCOCC1 | active: 7.94 µM | –
CC(=O)c1ccc(N2CCN(C(=O)Cc3n[nH]c(=O)c4ccccc34)CC2)cc1 | inactive | –
CC(C)(C)OC(=O)N1CCC(c2c(C(=O)N3CCN(C(=O)c4ccco4)CC3)cnn2-c2ccc(F)cc2)CC1 | inactive | –
CCCCc1ccc(NC(=S)N2CCN(C(=O)c3ccco3)CC2)cc1 | inactive | –
CCc1ccc(-c2csc(NC(=O)COC(=O)CCc3nc4ccccc4s3)n2)cc1 | inactive | –
COc1ccc(-c2noc(CCC(=O)N3CCN(c4ccc(Cl)cc4)CC3)n2)cc1 | inconclusive [inhibitor, partial curve] | –
CCOC(=O)N1CCN(C(=O)CCCn2c(=S)[nH]c3ccsc3c2=O)CC1 | inconclusive [inhibitor, full curve] | –
O=C(COC(=O)c1ccc(NS(=O)(=O)c2cccs2)cc1O)NC1CCCCC1 | inconclusive [inhibitor, single point] | –
Cc1cc(C)c2c(n1)nn1c(NCCCN(C)C)cc(C)nc21 | active: 22.4 µM | –
CC1CCN(Cc2c(C(=O)N/N=C/c3ccccc3O)nnn2-c2nonc2N)CC1 | active: 3.55 µM | –
OC(COCC1COc2ccccc2O1)CN1CCN(c2ccc(F)cc2)CC1 (stereo unspecified) | inconclusive [inhibitor, partial curve] | –

SMILES | Potency | activity change, negative = inhibition
CN(CC(=O)Nc1ccc(F)cc1)C(=O)COC(=O)/C=C/c1cccs1 | inconclusive [inhibitor, single point] | –
COc1cccc(CNCCc2c[nH]c3ccccc23)c1OCc1ccc(F)cc1 | inconclusive [inhibitor, single point] | –
O=C(NCc1ccccn1)c1ccc2c(=O)n(CCc3ccccc3)c(=O)[nH]c2c1 | inconclusive [inhibitor, single point] | –
CCCCOc1ccc(/C=N/NC(=O)c2nnn(-c3nonc3N)c2C)cc1 | inconclusive [inhibitor, partial curve, poor fit] | –
COc1ccc(C2c3ccc(O)cc3Oc3ncn(Cc4ccco4)c(=N)c32)cc1 (stereo unspecified) | inconclusive [inhibitor, single point] | –
Nc1nnnn1/N=C\c1ccc(Cl)c([N+](=O)[O-])c1 | inconclusive [inhibitor, single point] | –
O=C(N/N=C/c1ccc[nH]1)c1ccccc1O | inactive | –
O=S(=O)(NCC(c1ccccc1)N1CCNCC1)c1ccc(Cl)cc1 (stereo unspecified) | inconclusive [inhibitor, partial curve, poor fit] | –
Cn1cnnc1SCC(=O)Nc1ccc(F)cc1 | inconclusive [inhibitor, partial curve] | –
Cc1ccc(C(C(=O)NC2CCCC2)N(C(=O)c2csnn2)C2CCCC2)o1 (stereo unspecified) | inactive | –
OC(C#Cc1ccccc1)(c1ccccc1)c1ccccc1 | – | inconclusive: -43.6% [inhibitor]
CCOC(=O)CSc1nc2ccccc2c(=O)n1CCCCCC(=O)NCc1ccco1 | inactive | –
CCC(=O)c1ccc(OCC(=O)N2CCN(S(=O)(=O)c3ccc(Cl)s3)CC2)cc1 | inconclusive [inhibitor, partial curve] | –
O=C(CSc1nnc(CCCN2C(=O)c3cccc4cccc(c34)C2=O)n1-c1ccccc1)NCCCN1CCOCC1 | inactive | –
O=C(Nc1nnc(-c2ccccc2Cl)o1)c1ccc(S(=O)(=O)N2CCCCCC2)cc1 | inconclusive [inhibitor, partial curve] | –
Cc1ccc(C(=O)COc2ccccc2N2C(=O)c3ccccc3C2=O)cc1 | inactive | –
O=C(Nc1nc2c(s1)CCCC2)c1cc2n(n1)C(C(F)(F)F)CC(C1CC1)N2 (stereo unspecified) | inactive | –
CCN(C(=O)CSc1nc2ccc([N+](=O)[O-])cc2s1)C1CCS(=O)(=O)C1 (stereo unspecified) | inactive | –
C(=N\Nc1nc2ccccc2s1)/c1ccccn1 | active: 1.78 µM | –
O=C(O)c1cc(NS(=O)(=O)c2cccc3nsnc23)cc(C(=O)O)c1 | inactive | –
CCCCCn1c(=O)[nH]c2cc(C(=O)NCCCN3CCCCC3CC)ccc2c1=O (stereo unspecified) | inconclusive [inhibitor, partial curve] | –
CC(C)Sc1nnc2n(CCc3ccccc3)c(=O)c3c4c(sc3n12)COC(C)(C)C4 | inconclusive [inhibitor, single point] | –
Cc1ccccc1OCC(=O)N/N=C/c1sc(=O)n(Cc2cccc(C(=O)O)c2)c1Cl | inconclusive [inhibitor, single point] | –
NC(=O)c1cc(-c2ccccc2)nc(Oc2ccccc2)n1 | inconclusive [inhibitor, single point] | –

SMILES | Potency | activity change, negative = inhibition
CCOC(=O)C1(CC)NC(c2cccc(F)c2)C2C(=O)N(CC)C(=O)C21 (stereo unspecified) | inactive | –
CCC1=C(OC(=O)N(CC)CC)N2C(=O)OC(=NCC(=O)OC)[C@]2(C)[C@H]2C1=CC[C@H]1C(=O)NC(=O)[C@H]12 | inactive | –
CC1CCCCC1NC(=O)NC(=O)COC(=O)c1nccnc1N (stereo unspecified) | inactive | –
CCOC(=O)c1c(NC(=O)/C=C/c2ccc(C)o2)sc(C)c1C | inconclusive [inhibitor, partial curve, poor fit] | –
O=C(c1ccc(S(=O)(=O)N2CCOCC2)cc1)N(Cc1ccco1)Cc1cccs1 | inactive | –
Cc1ccc(CN(C)C(=O)c2cccc(S(=O)(=O)N3CCc4ccccc43)c2)cc1 | inconclusive [inhibitor, single point] | –
CCCCc1ccc(NC2=NCC(=O)N2CCc2ccccc2)cc1 | inconclusive [inhibitor, full curve, poor fit] | –
CCOC(=O)c1c(-c2ccccc2)c2cc(OC)ccc2n1CCCN(C)C | active: 14.1 µM | –
CCOc1ccc(N(CC(=O)NCCSc2ccccn2)S(=O)(=O)c2ccc(Cl)cc2)cc1 | inconclusive [inhibitor, single point] | –
CCCOC(=O)C1=C(C)NC2=C(C(=O)C(C(=O)OC)C(C)C2)C1c1ccc(N(CC)CC)cc1 (stereo unspecified) | active: 10 µM | –
CC(=O)N(Cc1ccco1)c1nc(C(=O)Nc2ccc(Cl)cc2)c(C)s1 | inconclusive [inhibitor, partial curve] | –
Cc1ccc(-c2cn3cc([N+](=O)[O-])ccc3n2)cc1 | inconclusive [inhibitor, full curve] | –
Cc1ccc(C(=O)NCC(=O)OC(C)C(=O)NC2CCCc3ccccc32)cc1 (stereo unspecified) | inactive | –
C/C(=N\N=C(c1ccccc1)c1ccccc1)c1ccco1 | inconclusive [inhibitor, single point] | –
COc1ccc(S(=O)(=O)c2c(N)n(Cc3ccco3)c3nc4ccccc4nc23)cc1 | inconclusive [inhibitor, single point] | –
CCOc1ccc(NC(=O)N2CCC(c3nc4ccccc4[nH]3)CC2)cc1 | inactive | –
CCCc1cc(=O)oc2c3c(c4c(c12)OC(C)(C)C=C4)OC(C)C(C)C3O (stereo unspecified) | active: 10 µM | –
COCCN(CC(=O)NC1CCCCC1)C(=O)/C=C/C(=O)c1ccc(OC)cc1O | inconclusive [inhibitor, single point] | –
CCOc1cc(N2CCOCC2)c(OCC)cc1NC(=O)c1ccco1 | inconclusive [inhibitor, single point] | –
CN(C(=O)c1ccc(-c2nn(C)c(=O)c3ccccc23)cc1)c1ccccc1 | inconclusive [inhibitor, partial curve] | –
CCS(=O)(=O)c1ccc2oc(SCC(=O)c3c(N)n(C4CC4)c(=O)[nH]c3=O)nc2c1 | inactive | –
COc1cccc(CN(C)C(=O)c2cccc(S(=O)(=O)N3CCN(Cc4ccccc4)CC3)c2)c1OC | active: 7.94 µM | –
CCOC(=O)c1ccc(NC(=O)Nc2ccc(S(N)(=O)=O)cc2)cc1 | inconclusive [inhibitor, single point] | –
